Reference: paper PMC6919601, “Identification of Plasmodium dipeptidyl aminopeptidase allosteric inhibitors by high throughput screening” (PLoS ONE, 2019)
The campaign covered roughly 110,000 compounds. About 230 (0.21%) showed an effect of 50% or more. The list shows a part of the results.

Biological target: DPAP1 (Plasmodium falciparum, UniProt Q8IIJ9)
Assay: primary screen, percent inhibition; read by cleavage of a fluorogenic dipeptide substrate; higher = more effect of the substance
Set-up: species or system P. falciparum D10 trophozoite lysates; single well
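Also: 30 min substrate incubation versus DMSO and 10 µM JCP410 controls.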

Sequence of DPAP1 (Q8IIJ9 whole entry, looked up): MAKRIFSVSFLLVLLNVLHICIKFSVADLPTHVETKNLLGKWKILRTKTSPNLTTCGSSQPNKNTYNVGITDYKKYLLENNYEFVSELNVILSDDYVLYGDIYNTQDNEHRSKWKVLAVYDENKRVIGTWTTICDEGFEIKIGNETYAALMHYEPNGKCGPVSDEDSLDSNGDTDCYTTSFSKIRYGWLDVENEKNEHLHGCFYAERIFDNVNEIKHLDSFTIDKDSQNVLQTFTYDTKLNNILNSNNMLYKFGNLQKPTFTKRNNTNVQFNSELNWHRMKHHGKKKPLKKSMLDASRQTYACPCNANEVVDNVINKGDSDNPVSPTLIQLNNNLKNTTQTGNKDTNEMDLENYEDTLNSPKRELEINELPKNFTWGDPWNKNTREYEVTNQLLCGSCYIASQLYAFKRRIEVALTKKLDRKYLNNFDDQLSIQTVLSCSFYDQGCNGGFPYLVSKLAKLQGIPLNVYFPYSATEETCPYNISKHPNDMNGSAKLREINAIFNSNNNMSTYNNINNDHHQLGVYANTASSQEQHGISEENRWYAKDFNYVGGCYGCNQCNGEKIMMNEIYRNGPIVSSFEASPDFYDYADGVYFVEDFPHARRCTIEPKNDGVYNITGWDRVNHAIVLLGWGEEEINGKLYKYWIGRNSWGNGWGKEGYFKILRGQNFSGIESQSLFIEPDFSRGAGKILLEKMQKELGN

SMILES	% Inhibition @ 10 uM
CCOC(=O)N1CCC(NCCc2ccc(Cl)cc2)CC1	-7.35%
O=C(NCC1CCCO1)c1cc(O)nc2ccc(Br)cc12 (stereo not drawn)	6.32%
Cc1ccc2[nH]c(C)c(CCNC(=O)c3ccc(C(=O)c4ccccc4)o3)c2c1	-2.63%
CCNc1oc(/C=C/c2cccc(OC)c2)nc1C#N	-0.808%
CCCCC/C(C)=C(\C#N)C(=O)OCC	-6.99%
CCN1CCC(N(Cc2ccco2)C(=O)NC23CC4CC(CC(C4)C2)C3)CC1	-8.86%
CCN(CC)CCCOC(=O)c1ccc(OC)c(O)c1	1.84%
Cc1ccc(CN(C(=O)COc2cccc(C)c2C)C2CCS(=O)(=O)C2)o1 (stereo not drawn)	-4.64%
CSc1nc2ccc(N3C(=O)C4CCCCC4C3=O)cc2s1 (stereo not drawn)	-1.78%
Cn1c(=O)n(C)c2c([N+](=O)[O-])nccc21	-2.63%
Clc1ccc(-n2nnnc2-c2ccccc2)cc1	-4.32%
Cc1ccc2nc3c(O)n(CC(=O)NCc4ccccc4Cl)ncc-3c2c1	-2.71%
COc1cccc(-c2cc(C(F)(F)F)n3ncc(C(=O)Nc4ccc(C#N)cc4)c3n2)c1	-4.49%
O=[N+]([O-])c1ccc(Cl)c(CN2CCN(c3cccc(C(F)(F)F)c3)CC2)c1	4.67%
COc1ccccc1C(=O)Nc1ccc(C)cn1	-1.92%
COc1ccc(-c2cc(-c3ccc4ccccc4c3O)[nH]n2)cc1	-1.33%
Cc1cc(C)n(-c2ccc(O)nn2)n1	-0.828%
Cc1ccccc1CN(C)CCN(C)C	3.53%
COc1cc2c(cc1OC)/C(=C\c1ccccc1)C(=O)OC2	3.03%
NC(=O)c1nn(-c2ccccc2)nc1NC(=O)CN1CCOCC1	-2.19%
COc1cc(OC)cc(C(=O)Nc2c(C)cccc2C(C)C)c1	-1.11%
CC(C)(C)NCc1ccccc1OCc1cccs1	-4.7%
CCCN(CCC)CCNC(=O)C1CCN(C2=NS(=O)(=O)C(c3ccc(C)c(C)c3)=C2C)CC1	1.63%
CC(C)(C)c1ccc(OCC(O)CN2CCCC2)cc1 (stereo not drawn)	0.634%
O=C1C2CC=CCC2C(=O)N1c1ccccc1Cl (stereo not drawn)	-2.8%
COc1ccc(CN=C(N)N)cc1	-3.41%
CC(C)CNP(=S)(c1ccccc1)C(C)(C)C (stereo not drawn)	1.12%

SMILES	% Inhibition @ 10 uM
C=CCN1C(=O)S/C(=C/c2ccc(N(C)C)c(Br)c2)C1=O	1.35%
COc1ccccc1-c1c(C)nn2c(NCCCN3CCCC3=O)cc(C)nc12	-3.7%
COCCN1C(=O)/C(=C\c2ccc(Cl)cc2)C(C(=O)OC)=C1C	1.81%
CCOc1ccc2cc(C(=O)NCc3ccccc3)c(=N)oc2c1	-1.26%
COc1cc(-c2nc3s/c(=C\C=C\c4ccccc4)c(=O)n3n2)cc(OC)c1OC	-4.85%
O=C(Nn1cnnc1)c1ccccc1Cl	4.1%
O=C(CC1SC(NCc2ccccc2)=NC1=O)Nc1ccccc1 (stereo not drawn)	-4.68%
CCOc1ccc(N2C(=O)CC(NC3CCCC3)C2=O)cc1 (stereo not drawn)	-3.03%
COc1ccc(NC(=O)CSc2ccccc2)cc1OC	-4.13%
COc1ccccc1CNS(=O)(=O)c1ccc(NC(C)=O)cc1	5.09%
Cc1cc(C)nc(NC2=NCCN2C(=O)Nc2ccc(Cl)c(Cl)c2)n1	-2.21%
O=C1CCNc2ccc(-c3ccccc3)cc21	-4.96%
O=C(O)c1ccccc1C(=O)Nc1cccc2c(NC(=O)c3ccccc3C(=O)O)cccc12	-5.51%
CCCCN(C)C(=O)c1nc(-c2ccc(C)cc2)n2c1CCCCC2	-1.69%
CC1=C(C#N)C(=O)N(CC(C)O)C(=O)/C1=C/c1ccc(-c2cccc(Cl)c2Cl)o1 (stereo not drawn)	4.85%
Cc1cc(OCC(=O)N2CCCC2)ccc1Br	-1.5%
COc1ccc(-c2noc(CN(C(=O)COc3ccc(Br)cc3)C(C)C)n2)cc1	2.23%
CCN(Cc1ccccc1)Cc1csc(C)c1C	7.86%
CNC(=O)C1CC(=O)N(Cc2ccc(OC)cc2)/C(=N/c2ccc(Cl)cc2)S1 (stereo not drawn)	-3.04%
O=C(CNc1ccccc1)N1c2ccccc2Sc2ccccc21	2.42%
CC(=O)CC(C)(C)S(=O)(=O)c1ccc(Br)cc1	4.57%
CN1c2ccccc2N(C)C1c1cccs1	-7.34%
Cn1c(=O)c2c(nc(NCc3cccnc3)n2Cc2cccc3ccccc23)n(C)c1=O	3.06%
Cc1ccc(S(=O)(=O)Nc2ccccc2)cc1N	-4.35%
CC(=O)Nc1c2c(nn1-c1ccc(C)cc1)CS(=O)(=O)C2	0.566%
Cc1ccc(-n2c(C)cc(/C=C3/C(=N)N4C(=NC3=O)SN=C4S(C)(=O)=O)c2C)cc1Cl	6.59%
CC1CN(C(=O)c2cccs2)CCN1C(=O)c1cccs1 (stereo not drawn)	-2.37%

SMILES	% Inhibition @ 10 uM
CC(C)(CC(=O)O)CC(=O)Nc1ccc(Cl)cc1Cl	3.69%
CCOC(=O)C1CCN(C2C3CC4CC(C3)CC2C4)CC1 (stereo not drawn)	4.75%
O=C(NCc1nc(-c2ccc(Cl)cc2)no1)C12CC3CC(CC(C3)C1)C2	-4.82%
CCCNC(=S)NC(c1ccccc1)(c1ccccc1)c1ccccc1	-0.415%
CCOc1ccc(/C=C2\CCC(C3CCCC3)C2=O)cc1 (stereo not drawn)	4.06%
COCCNC(=O)C1c2ccccc2C(=O)N2CCCCC12 (stereo not drawn)	1.91%
Cc1ccc(C(=O)CN2C(=O)S/C(=C\c3ccc(OCC(=O)O)cc3)C2=O)cc1	1.59%
Cc1cc(C)c(S(=O)(=O)Nc2ccccc2C)c(C)c1	-5.32%
COc1ccc(CN2CC(C)OC(C)C2)cc1O (stereo not drawn)	-9.96%
Cc1ccccc1OCC(=O)Nc1cccnc1Cl	-2.65%
CCc1ccc2nc(N3CCC(C(=O)N4CCC5(CC4)OCCO5)CC3)sc2c1	-5.51%
CCCNC(=O)C1CCN(C(=O)c2cnn(-c3ccccc3)c2-n2cccc2)CC1	3.4%
Clc1cccc(OCCCN2CCOCC2)c1	-0.351%
Sc1nc(-c2ccccc2)nc2c1C1(CCCC1)Cc1ccccc1-2	-2.44%
COc1ccc(C2CC(=O)N3CN(CCC(C)C)CSC3=C2C#N)cc1OC (stereo not drawn)	46.8%
COc1ccc(/C=C2/C(=N)N3N=C(C(C)C)SC3=NC2=O)cc1OC	-2.87%
Cc1nnc(SCc2c(C)noc2C)nc1O	-7.04%
O=C(NCCc1ccsc1)NCc1noc2ccccc12	0.0147%
COc1ccc(Cl)cc1N(CC(=O)Nc1cccc(C)c1)S(C)(=O)=O	-0.185%
CN1CCN(Cc2ccc(Br)o2)CC1	-6.21%
Cc1cc(=O)n2nc(N(C)CC(=O)NCc3ccc4c(c3)OCO4)sc2n1	3%
CCc1ccc(C2=CC(c3ccc(OC)c(OC)c3OC)n3nnnc3N2)cc1 (stereo not drawn)	-3.37%
Cc1cccc(NC(=O)COc2ccc(Cl)cc2Cl)c1C	-5.11%
CCCN1CCN(C(=O)Cn2nc(Cc3cccnc3)c3ccccc3c2=O)CC1	3.59%
O=c1c2c3c(sc2[nH]c(=S)n1Cc1ccccc1)CCCC3	3.06%
O=C(NC1CCS(=O)(=O)C1)/C(NC(=O)c1ccccc1)=C(/Sc1ccc(Cl)cc1)c1ccccc1 (stereo not drawn)	-8.12%
COc1ccc(S(=O)(=O)Nc2ccc(C)c(C)c2)cc1	-0.0813%

SMILES	% Inhibition @ 10 uM
COc1ccc(OC)c(NC(=O)c2ccccc2F)c1	4.55%
O=C1C(Sc2ccccc2)=C/C(=N/S(=O)(=O)c2cccs2)c2ccccc21	0.0289%
CCOc1ccc(C2=Nn3c(nnc3-c3ccccc3)SC2)cc1Cl	2.89%
CCN(CC)C(=O)C1CCCN(Cc2ccc(OC)cc2)C1 (stereo not drawn)	-0.127%
Cc1sc2nc(C)n(N)c(=O)c2c1C	-4.02%
Nc1sc2c(c1C(=O)Nc1ccc(Br)cc1)CCCC2	22.8%
CCc1ccccc1NS(=O)(=O)c1ccc(Cl)cc1	-8.76%
CCOc1ccc2nc(NC(=O)COc3ccc(Br)cc3)sc2c1	0.0265%
CCN(C(=O)CCC(=O)N(CC)c1ccccc1)c1ccccc1	-7.84%
Cc1cc(-c2ccc(S(=O)(=O)Nc3cccc(C)n3)cc2)on1	-5.92%
CCN1CCN(C(=O)c2cc3c(Cl)nc4ccc(C)cc4c3s2)CC1	-7.13%
O=S(=O)(c1ccc(Cl)cc1)N1CCN(C2CCC(c3ccccc3)CC2)CC1 (stereo not drawn)	-11.3%
COc1ccccc1CNC1Cc2ccccc2C1	-0.0908%
COC(=O)c1cc(-c2ccc(Cl)cc2)[nH]n1	-4.84%
Clc1ccc(-n2ncc3c(NCCCn4ccnc4)ncnc32)cc1	-1.1%
Clc1ccccc1OCCn1c(C2CCCO2)nc2ccccc21 (stereo not drawn)	-1.22%
O=c1ccn(Cc2ccccc2)c(=O)n1Cc1ccccc1	-3.09%
CC1=C(C(=O)Nc2cccnc2)C(c2cccnc2)C2=C(O)CC(C)(C)CC2=N1 (stereo not drawn)	-6.18%
Cc1cc(Br)c2c(c1)C(c1c(C)n(C)n(-c3ccccc3)c1=O)(c1c(C)n(C)n(-c3ccccc3)c1=O)C(=O)N2	3.74%
Cc1ccc(C2C3=C(Nc4ncnn42)c2ccccc2OC3c2cccs2)cc1 (stereo not drawn)	-3.37%
CN1CCN(C(=O)c2ccccc2)C(c2ccccc2)C1 (stereo not drawn)	-9.28%
COC(=O)c1cc2sc(Cl)cc2n1CC(=O)N(C)C1CCCCC1	-12.5%
CNC(=O)C(=O)NCCc1c[nH]c2ccccc12	4.84%
COc1cc2c(cc1OC)C(c1ccccn1)N(C(C)=O)CC2 (stereo not drawn)	4.57%
